This passage reports binding results from paper PMC6975528.

Amino acid sequences for entries named in this document (tags omitted).
UniProt Q8N884: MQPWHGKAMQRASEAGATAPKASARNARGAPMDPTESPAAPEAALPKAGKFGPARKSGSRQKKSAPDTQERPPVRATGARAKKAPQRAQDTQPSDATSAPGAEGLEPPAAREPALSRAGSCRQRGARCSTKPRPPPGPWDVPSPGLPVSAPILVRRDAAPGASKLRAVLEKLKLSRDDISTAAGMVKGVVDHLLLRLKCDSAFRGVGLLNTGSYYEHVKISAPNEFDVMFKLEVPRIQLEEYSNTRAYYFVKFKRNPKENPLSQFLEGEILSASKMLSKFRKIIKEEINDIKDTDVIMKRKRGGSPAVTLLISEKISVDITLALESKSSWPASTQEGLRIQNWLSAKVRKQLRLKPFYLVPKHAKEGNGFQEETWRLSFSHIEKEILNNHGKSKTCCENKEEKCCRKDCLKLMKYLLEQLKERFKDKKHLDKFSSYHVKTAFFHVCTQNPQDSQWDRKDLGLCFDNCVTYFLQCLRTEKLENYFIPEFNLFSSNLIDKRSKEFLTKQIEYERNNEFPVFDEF
UniProt Q86WV6: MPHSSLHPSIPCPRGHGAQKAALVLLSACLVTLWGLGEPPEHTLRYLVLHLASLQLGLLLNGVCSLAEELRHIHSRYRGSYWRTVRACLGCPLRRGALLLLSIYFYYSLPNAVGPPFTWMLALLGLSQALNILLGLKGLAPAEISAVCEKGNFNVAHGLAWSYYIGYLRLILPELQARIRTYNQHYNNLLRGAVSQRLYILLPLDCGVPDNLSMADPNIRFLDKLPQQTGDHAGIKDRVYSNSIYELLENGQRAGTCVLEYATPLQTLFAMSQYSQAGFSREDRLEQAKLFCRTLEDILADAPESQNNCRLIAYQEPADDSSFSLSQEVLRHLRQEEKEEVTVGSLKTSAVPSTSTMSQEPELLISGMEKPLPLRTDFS

These are yes or no findings as the source states them, for the method shown. In cells and extracts the contact can be indirect. Some entries that bind do so weakly or less than the wild type. For some of these results: Tags and fused reporters may be left off the sequences shown.

The target in assay [1] is cyclic GMP-AMP synthase (cGAS), expressed by transient transfection in HEK293T cells (UniProt Q8N884). Nature of the assay: co-IP; HEK293T cells transfected with the indicated plasmids (5 μg each) for 24 h; NP-40 lysis buffer (20 mM Tris-HCl pH 7.4, 150 mM NaCl, 1 mM EDTA, 1% NP-40); Protein G Sepharose, 4°C; washes with lysis buffer containing 0.5 M NaCl.
Assay [2] has as its target T1, TANK-binding kinase 1 (TBK1), expressed by transient transfection in HEK293T cells (UniProt Q9UHD2).
T1 sequence: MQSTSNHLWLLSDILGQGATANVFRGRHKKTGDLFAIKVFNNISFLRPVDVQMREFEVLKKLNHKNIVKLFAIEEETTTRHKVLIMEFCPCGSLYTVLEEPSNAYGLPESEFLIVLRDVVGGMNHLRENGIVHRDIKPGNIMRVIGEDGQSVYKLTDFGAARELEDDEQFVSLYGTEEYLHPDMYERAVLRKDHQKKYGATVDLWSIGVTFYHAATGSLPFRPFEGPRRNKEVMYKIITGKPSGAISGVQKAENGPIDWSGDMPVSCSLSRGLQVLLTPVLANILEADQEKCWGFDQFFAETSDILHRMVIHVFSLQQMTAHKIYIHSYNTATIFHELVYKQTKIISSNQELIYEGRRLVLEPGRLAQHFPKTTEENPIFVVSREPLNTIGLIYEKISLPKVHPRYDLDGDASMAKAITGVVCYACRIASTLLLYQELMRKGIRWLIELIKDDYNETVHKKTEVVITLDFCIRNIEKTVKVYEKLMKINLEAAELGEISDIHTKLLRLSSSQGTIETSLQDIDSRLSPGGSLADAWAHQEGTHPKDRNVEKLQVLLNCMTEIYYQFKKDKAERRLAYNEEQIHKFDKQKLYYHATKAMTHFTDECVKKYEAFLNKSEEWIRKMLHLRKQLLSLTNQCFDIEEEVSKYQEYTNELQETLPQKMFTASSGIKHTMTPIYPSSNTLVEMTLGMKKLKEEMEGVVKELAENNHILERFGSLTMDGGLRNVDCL
The assay is described as above.

Assay [3] has as its target Mediator of IRF3 activation (MITA), expressed by transient transfection in HEK293T cells (UniProt Q86WV6). The assay is described as above.
For assay [4], the target named is T2, IKKε, expressed by transient transfection in HEK293T cells (UniProt Q14164).
T2 sequence: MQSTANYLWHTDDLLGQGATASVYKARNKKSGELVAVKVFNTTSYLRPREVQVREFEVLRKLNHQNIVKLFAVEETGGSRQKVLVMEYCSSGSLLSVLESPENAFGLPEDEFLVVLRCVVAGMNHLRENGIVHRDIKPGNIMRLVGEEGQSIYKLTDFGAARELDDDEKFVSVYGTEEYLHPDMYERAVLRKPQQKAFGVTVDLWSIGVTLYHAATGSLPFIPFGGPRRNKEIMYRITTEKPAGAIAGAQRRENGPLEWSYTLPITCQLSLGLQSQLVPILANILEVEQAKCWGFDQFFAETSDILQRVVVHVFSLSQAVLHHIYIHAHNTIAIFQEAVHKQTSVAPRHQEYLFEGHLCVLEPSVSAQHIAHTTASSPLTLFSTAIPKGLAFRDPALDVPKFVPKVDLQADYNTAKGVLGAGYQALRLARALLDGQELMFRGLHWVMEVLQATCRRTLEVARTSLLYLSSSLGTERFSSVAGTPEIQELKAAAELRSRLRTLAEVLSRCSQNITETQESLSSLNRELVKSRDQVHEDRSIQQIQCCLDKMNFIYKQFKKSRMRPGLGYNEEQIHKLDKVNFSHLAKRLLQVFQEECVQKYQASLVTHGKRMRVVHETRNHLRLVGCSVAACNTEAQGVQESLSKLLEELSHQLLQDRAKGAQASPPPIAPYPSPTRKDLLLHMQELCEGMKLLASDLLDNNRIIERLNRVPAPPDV
Described as above.

For assay [5], the target named is T3, interferon regulatory factor 3 (IRF3), expressed by transient transfection in HEK293T cells (UniProt Q14653).
T3 sequence: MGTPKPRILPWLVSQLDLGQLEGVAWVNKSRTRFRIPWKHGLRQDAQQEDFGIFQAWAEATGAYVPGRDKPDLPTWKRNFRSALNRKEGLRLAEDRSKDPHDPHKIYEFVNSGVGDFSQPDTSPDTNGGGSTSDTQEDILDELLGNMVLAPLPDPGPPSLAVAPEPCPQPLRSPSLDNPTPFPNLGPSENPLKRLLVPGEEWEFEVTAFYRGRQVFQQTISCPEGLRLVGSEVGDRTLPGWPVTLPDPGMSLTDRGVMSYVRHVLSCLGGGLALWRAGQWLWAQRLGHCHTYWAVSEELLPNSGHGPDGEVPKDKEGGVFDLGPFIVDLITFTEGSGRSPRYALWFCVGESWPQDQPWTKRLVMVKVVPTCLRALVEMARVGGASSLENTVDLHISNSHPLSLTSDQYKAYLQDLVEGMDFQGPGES
Described as above.

The target of assay [6] is T4, endogenous MITA of immortalized mouse lung fibroblasts (mouse (endogenous in iMLFs)) (UniProt Q3TBT3).
T4 sequence: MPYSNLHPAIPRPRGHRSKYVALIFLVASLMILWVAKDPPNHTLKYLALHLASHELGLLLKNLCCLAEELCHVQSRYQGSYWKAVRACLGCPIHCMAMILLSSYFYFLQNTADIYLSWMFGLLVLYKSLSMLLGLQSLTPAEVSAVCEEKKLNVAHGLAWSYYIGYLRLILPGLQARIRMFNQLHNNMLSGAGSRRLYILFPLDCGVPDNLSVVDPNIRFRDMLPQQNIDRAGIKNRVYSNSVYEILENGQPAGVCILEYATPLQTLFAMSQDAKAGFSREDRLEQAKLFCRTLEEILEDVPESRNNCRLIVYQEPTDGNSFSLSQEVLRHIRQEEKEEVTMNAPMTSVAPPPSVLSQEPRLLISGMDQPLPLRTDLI
Description: co-IP; Usp44-/- iMLFs reconstituted with USP44-Flag, infected with HSV-1 (MOI = 1) for the indicated times in the presence of MG132 (10 μM); immunoprecipitation with anti-MITA, immunoblot. (Immunoblotting shows a protein as a band on a membrane.)

In assay [7] the target is T4, endogenous MITA of immortalized mouse lung fibroblasts (mouse (endogenous in iMLFs)). Nature of the assay: co-IP; membraneous fraction (20000 g pellet) of Usp44-/- iMLFs reconstituted with USP44-Flag, infected with HSV-1 (MOI = 1) for the indicated times; co-immunoprecipitation and immunoblot.

B1: ubiquitin-specific protease 44 (USP44), expressed by transient transfection in HEK293T cells (enzyme, UniProt Q9H0E7 1-712)
chain: MLAMDTCKHVGQLQLAQDHSSLNPQKWHCVDCNTTESIWACLSCSHVACGRYIEEHALKHFQESSHPVALEVNEMYVFCYLCDDYVLNDNTTGDLKLLRRTLSAIKSQNYHCTTRSGRFLRSMGTGDDSYFLHDGAQSLLQSEDQLYTALWHRRRILMGKIFRTWFEQSPIGRKKQEEPFQEKIVVKREVKKRRQELEYQVKAELESMPPRKSLRLQGLAQSTIIEIVSVQVPAQTPASPAKDKVLSTSENEISQKVSDSSVKRRPIVTPGVTGLRNLGNTCYMNSVLQVLSHLLIFRQCFLKLDLNQWLAMTASEKTRSCKHPPVTDTVVYQMNECQEKDTGFVCSRQSSLSSGLSGGASKGRKMELIQPKEPTSQYISLCHELHTLFQVMWSGKWALVSPFAMLHSVWRLIPAFRGYAQQDAQEFLCELLDKIQRELETTGTSLPALIPTSQRKLIKQVLNVVNNIFHGQLLSQVTCLACDNKSNTIEPFWDLSLEFPERYQCSGKDIASQPCLVTEMLAKFTETEALEGKIYVCDQCNSKRRRFSSKPVVLTEAQKQLMICHLPQVLRLHLKRFRWSGRNNREKIGVHVGFEEILNMEPYCCRETLKSLRPECFIYDLSAVVMHHGKGFGSGHYTAYCYNSEGGFWVHCNDSKLSMCTMDEVCKAQAYILFYTQRVTENGHSKLLPPELLLGSQHPNEDADTSSNEILS
As to B1, the binding result is on record as “no binding” in assay [1]; “no binding” in assay [2]; “binds” in assay [3]; “no binding” in assay [4]; “no binding” in assay [5].

B2: Flag-tagged USP44 (USP44-Flag) reconstituted in immortalized Usp44-/- MLF cells (enzyme, UniProt Q9H0E7 1-712)
chain: MLAMDTCKHVGQLQLAQDHSSLNPQKWHCVDCNTTESIWACLSCSHVACGRYIEEHALKHFQESSHPVALEVNEMYVFCYLCDDYVLNDNTTGDLKLLRRTLSAIKSQNYHCTTRSGRFLRSMGTGDDSYFLHDGAQSLLQSEDQLYTALWHRRRILMGKIFRTWFEQSPIGRKKQEEPFQEKIVVKREVKKRRQELEYQVKAELESMPPRKSLRLQGLAQSTIIEIVSVQVPAQTPASPAKDKVLSTSENEISQKVSDSSVKRRPIVTPGVTGLRNLGNTCYMNSVLQVLSHLLIFRQCFLKLDLNQWLAMTASEKTRSCKHPPVTDTVVYQMNECQEKDTGFVCSRQSSLSSGLSGGASKGRKMELIQPKEPTSQYISLCHELHTLFQVMWSGKWALVSPFAMLHSVWRLIPAFRGYAQQDAQEFLCELLDKIQRELETTGTSLPALIPTSQRKLIKQVLNVVNNIFHGQLLSQVTCLACDNKSNTIEPFWDLSLEFPERYQCSGKDIASQPCLVTEMLAKFTETEALEGKIYVCDQCNSKRRRFSSKPVVLTEAQKQLMICHLPQVLRLHLKRFRWSGRNNREKIGVHVGFEEILNMEPYCCRETLKSLRPECFIYDLSAVVMHHGKGFGSGHYTAYCYNSEGGFWVHCNDSKLSMCTMDEVCKAQAYILFYTQRVTENGHSKLLPPELLLGSQHPNEDADTSSNEILS
Take B2: the binding entry in assay [6] and in assay [7] was “binds” each time.
